Measured values reported in PMC6919601, “Identification of Plasmodium dipeptidyl aminopeptidase allosteric inhibitors by high throughput screening” (PLoS ONE, 2019).
Where “and” joins values, the source holds several entries; their conditions need not be identical. Equal entries are not always repeated. Screen size: about 110,000 compounds; about 230 (0.21%) showed an effect of 50% or more. This is one part of the list.

Biological target: DPAP1 (Plasmodium falciparum, UniProt Q8IIJ9)
Assay: primary screen, percent inhibition; read by cleavage of a fluorogenic dipeptide substrate; higher = more effect of the substance
Parameters: species or system P. falciparum D10 trophozoite lysates; single well
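Also: 30 min substrate incubation versus DMSO and 10 µM JCP410 controls.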

Sequence of DPAP1 (Q8IIJ9 whole entry, looked up): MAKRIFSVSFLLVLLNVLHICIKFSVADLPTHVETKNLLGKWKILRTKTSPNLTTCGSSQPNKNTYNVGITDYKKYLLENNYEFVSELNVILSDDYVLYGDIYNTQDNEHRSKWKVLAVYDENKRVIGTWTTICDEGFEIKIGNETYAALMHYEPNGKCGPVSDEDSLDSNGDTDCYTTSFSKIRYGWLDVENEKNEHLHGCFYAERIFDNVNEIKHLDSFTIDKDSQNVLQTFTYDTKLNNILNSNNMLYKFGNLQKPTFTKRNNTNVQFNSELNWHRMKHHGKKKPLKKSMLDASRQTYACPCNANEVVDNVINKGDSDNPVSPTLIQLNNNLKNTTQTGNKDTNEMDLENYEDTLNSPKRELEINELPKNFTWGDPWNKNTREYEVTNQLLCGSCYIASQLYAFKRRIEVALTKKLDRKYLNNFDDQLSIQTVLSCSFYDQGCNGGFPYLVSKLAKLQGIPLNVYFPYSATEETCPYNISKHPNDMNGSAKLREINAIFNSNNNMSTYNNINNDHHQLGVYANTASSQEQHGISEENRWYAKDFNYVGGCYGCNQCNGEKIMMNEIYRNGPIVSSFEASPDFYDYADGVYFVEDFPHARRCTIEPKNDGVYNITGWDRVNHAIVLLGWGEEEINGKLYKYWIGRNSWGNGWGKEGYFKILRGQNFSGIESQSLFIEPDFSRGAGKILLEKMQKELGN

Row | SMILES | % Inhibition @ 10 uM
1 | Cc1cc(C(F)(F)F)nc(NC(=O)NC(=O)c2cccc(C(F)(F)F)c2)n1 | -11%
2 | CCOC(=O)c1c(NC(=O)c2ccc3c(c2)OCO3)sc(C(=O)NC2CCCCC2)c1C | -2.98%
3 | COC(=O)C1C(=O)N(C(C)=O)CC1c1ccccc1 (stereo not drawn) | 3.28%
4 | CC(=O)c1cc(-c2ccccc2)n(CCC(=O)Nc2nc3ccc(C)cc3s2)c1C | 2.87%
5 | C#CCNC(=O)C1CCN(c2cnccn2)CC1 | -2.71%
6 | Cc1nc(C(Cl)(Cl)Cl)nc2nccc(O)c12 | 3.25%
7 | Cc1ccc(CN(CC(=O)N2CCC(C)CC2)S(=O)(=O)c2ccc(Br)cc2)cc1 | -4.33%
8 | CCOc1ccccc1N1CCN(CCC2=C(C)CCCC2(C)C)CC1 | -5.31%
9 | CCN(CC)CCNC(=O)Cn1c(C)nc2ccccc21 | -3.26%
10 | COc1cc(CN2CCN(Cc3ccc(Br)cc3)CC2)cc(OC)c1 | 7.06%
11 | O=C(NCc1ccco1)C1CCN(c2nc3ccccc3[nH]2)CC1 | -2.18%
12 | CC(NCC(O)c1ccc([N+](=O)[O-])cc1)C12CC3CC(CC(C3)C1)C2 (stereo not drawn) | -2.36%
13 | O=C(NC1CCCC1)c1cccc(OCc2ccccc2)c1 | -1.82%
14 | Cn1c(C(=O)NCCc2c[nH]c3ccccc23)cc2c(=O)n3ccccc3nc21 | -3.73%
15 | O=c1oc(-c2ccc(F)cc2)nc2sc3c(c12)CCCC3 | 5.03%
16 | Cc1ccc(CSc2nc3ccncc3n2Cc2ccc(C(=O)NCCN(C)C)cc2)cc1 | -0.23%
17 | CCCCCC(=O)Nc1cccc(-c2nc3ncccc3o2)c1 | 0.121%
18 | C=C(C)CN(CC)Cc1c(C)n(C)n(-c2ccccc2)c1=O | 1.08%
19 | COc1ccc(C(=O)Nc2ccc(C)cc2Br)c(OC)c1 | -3.45%
20 | O=c1cccc2n1C[C@H]1C[C@@H]2CN(Cc2ccc([N+](=O)[O-])cc2)C1 | -10.2%
21 | CC1(C)COC2(OC1)C(=O)N(CN1CCOCC1)c1ccccc12 | 1.61%

Row | SMILES | % Inhibition @ 10 uM
22 | CCOc1ccc(C(=O)Nc2c(C(=O)N3CCC(N4CCCCC4)CC3)oc3ccccc23)cc1 | -1.79%
23 | O=C(c1cccc(C(F)(F)F)c1)n1nnc2ccccc21 | 8.74%
24 | COc1c(-c2ccccc2)oc2cc(O)cc(O)c2c1=O | 4.7% and -3.33%
25 | COc1ccccc1CN1CCN(Cc2ccccc2)CC1 | -3.56%
26 | O=C(Nc1cccc2ccccc12)c1ccccc1C(=O)N(c1ccccc1)c1ccccc1 | -8.49%
27 | CS(=O)(=O)N(Cc1ccc(Cl)cc1)c1ccc(C(=O)Nc2ccc(CC#N)cc2)cc1 | -10.2%
28 | COc1ccc(NCc2ccccc2)cc1 | -2.66%
29 | Cc1ccccc1-c1noc(-c2nnn(-c3ccc(Br)cc3F)c2N)n1 | 1.13%
30 | C=CCNC(=O)CCCOc1ccc(Cl)cc1Cl | -2.02%
31 | O=C(N/C(=C\c1ccc(Cl)cc1)C(=O)N1CCCCC1)c1ccco1 | -3.26%
32 | Cc1ccc(CCNS(=O)(=O)c2ccc(-c3ccc(O)nn3)s2)cc1 | -0.349%
33 | CCN(CC)C(=O)c1ccc(/N=C/c2c(C)nn(-c3ccc(C)c(C)c3)c2O)cc1 | -0.736%
34 | CCc1cc2c(cc3c(=O)n(CC(=O)NCc4ccc(C)cc4)nc(CC)n32)s1 | -5.32%
35 | Cc1nc2ccc(S(=O)(=O)N(C)CC(=O)NCc3ccc4c(c3)OCO4)cc2s1 | -7.8%
36 | Cc1c(CCN)c2ccccc2n1-c1ccccc1 | -10.8%
37 | COc1ccc(C2NC(=O)NC(C)=C2C(=O)Nc2ccc(C)cc2)cc1 (stereo not drawn) | 0.205%
38 | COc1ccc(C(=O)N(Cc2ccc(C(C)C)cc2)Cc2ccco2)cc1 | 3.69%
39 | COc1cc(Br)c(Br)c(/C=C2/SC(=O)NC2=O)c1O | 26.8%
40 | CCOc1cc(C2C(C#N)=C(N)Oc3[nH]nc(-c4ccc5c(c4)OCO5)c32)cc(Br)c1O (stereo not drawn) | -4.6%
41 | CC(C)C[C@H](NC(=O)N1CCN(C(C)(C)C)CC1)C(=O)NCC#N | 1.35%
42 | CCC1CCC(N2CCCC(O)C2)CC1 (stereo not drawn) | -1.21%

Row | SMILES | % Inhibition @ 10 uM
43 | CCOc1ccc(/C=C2\CS/C(=C\c3ccc(OCC)cc3)C2=O)cc1 | -1.29%
44 | COc1ccc(NC(=O)C2CC3CCC2C3)c(OC)c1 (stereo not drawn) | -1.61%
45 | O=C(CN1CCCN(Cc2ccccc2)S1(=O)=O)NCc1ccco1 | -4.36%
46 | Cc1ccc2c(c1)-c1c(cnn1CC(=O)Nc1ccc(Cl)cn1)CO2 | -6.77%
47 | O=C1C=C(Nc2ccc(O)cc2)C(=O)c2ccccc21 | 7.96%
48 | CCOc1ccc2nc(SCC(=O)Nc3ccc(OC)cc3)c(C#N)cc2c1 | 2.84%
49 | O=C1CSC(c2ccccc2[N+](=O)[O-])N1Cc1ccccc1 (stereo not drawn) | -0.771%
50 | COc1ccccc1C(=O)NC(C)c1cc(C)ccc1C (stereo not drawn) | 1.67%
51 | COc1ccc(NC(=O)C(C)NS(=O)(=O)c2ccc(C)cc2)cc1OC (stereo not drawn) | -1.61%
52 | C/C(=C\c1ccccc1)CN(CCO)Cc1ccccc1 | -11.4%
53 | CC1CCN(c2c(NCc3ccc(C(=O)NCCc4ccc(Cl)cc4)cc3)c(=O)c2=O)CC1 | -0.522%
54 | COc1ccc(C2=NS(=O)(=O)N(C)C(C(=O)NC(C)(C)CO)=C2)cc1 | 5.48%
55 | CCc1cc2c(cc3c(=O)n(CC(=O)NCc4ccc(C)cc4)ncn32)s1 | 1.68%
56 | COc1ccc(CC[N+]2=NO/C(=N/C(C)=O)C2)cc1OC | -9.5%
57 | COc1cc(-c2cc(C(F)(F)F)n3ncc(C(=O)NCC(C)C)c3n2)cc(OC)c1OC | 1.72%
58 | COc1ccc(/C=N/O)cc1[N+](=O)[O-] | 0.266%
59 | Cc1ccc(S(=O)(=O)N2CCC(Oc3cccc(C(F)(F)F)c3)CC2)cc1 | 3.88%
60 | CCSc1cc(N2CCN(CC)CC2)nc(-c2ccc(OC)cc2)n1 | -3.18%
61 | CC1(C)CC(=O)C2=C(C1)Oc1nc(N)c(C#N)c(N)c1C2c1cccc(Br)c1 (stereo not drawn) | 6.31%
62 | CCCC(=O)N1CCN(c2cc(N3CCC(C)CC3)c(F)cc2[N+](=O)[O-])CC1 | -1.32%
63 | CC(=O)c1ccc(Nc2nc(-c3ccccc3O)nc3ccccc23)cc1 | 2.65%
